Results published in PubChem BioAssay AID686978 (National Center for Advancing Translational Sciences (NCATS), 2013).
Out of some 420,000 compounds screened, about 64,000 (15%) were called active. Inconclusive results, whose numbers are uncertain, are shown with a selection of clear calls. Calls come from the whole dose curve; as a rule, active = well fitted inhibition curve with a large enough effect; inconclusive = small, poorly fitted or top-dose-only effect; inactive = flat fitted curve, though single readings scatter. Potencies of inconclusive entries are left out as doubtful fits.

test: qHTS for Inhibitors of human tyrosyl-DNA phosphodiesterase 1 (TDP1): qHTS in cells in absence of CPT; conditions: DT40 Tdp1-/- hTDP1 cells, no CPT, ATP luminescence, 48 h; activity change, negative = growth inhibition: at 46.2 µM (top of the series); note: nearly all actives have a fitted effect of over 55% in size
How it was run: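 Readout: luminescence from CellTiter-Glo after 30 min in the dark at RT. Cells: DT40 Tdp1-/- with stable hTDP1, 400/well. Exposure: compounds alone, ≥48 hr, 37 °C.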
% is set by controls: 0 for no effect and ±100 for the full control effect; potency is the fitted concentration of half-maximal effect; tags give direction and shape of the fitted curve.

| Compound | Potency | activity change, negative = growth inhibition |
| --- | --- | --- |
| COc1ccccc1NC(=O)C(C)Sc1nnc2ccc3ccccc3n12 (configuration not stated) | inconclusive [inhibitor, single point] |  |
| Cc1ccsc1/C=N/N1CCN(C2c3ccccc3-c3ccccc32)CC1 | inconclusive [inhibitor, partial curve] |  |
| CCc1cccc2c(-c3ccccc3)nc(SCC(=O)Nc3ccccc3OC)nc12 | active: 18.4 µM |  |
| Cn1nc(N)nc1N1CCN(c2ccc(F)cc2)CC1 |  | inactive: 2.45% |
| C=C1c2ccccc2O[C@H](C(=O)OCC)[C@@H]1C1CCCCC1 | inconclusive [inhibitor, partial curve] |  |
| O=C(Nc1ccccc1)N1CC[C@@]2(CCCN(C(=O)c3cc(C(F)(F)F)cc(C(F)(F)F)c3)C2)C1 | inconclusive [inhibitor, single point] |  |
| COCCCNC(=O)Cc1c(C)c2cc3c(cc2oc1=O)OC(C)(C)CC3 | active: 25.9 µM |  |
| Cc1ccc(-n2ncc(C(=O)NCc3cccs3)c2C2CCN(C(=O)OC(C)(C)C)CC2)cc1 | inconclusive [inhibitor, single point] |  |
| O=C(CCCN1C(=O)c2ccccc2C1=O)Nc1sc2c(c1C(=O)NCc1ccco1)CCC2 | inconclusive [inhibitor, single point] |  |
| CCCc1c(-c2ccc(F)cc2)ncn1CCc1ccccc1OC | active: 16.4 µM |  |
| COC(=O)c1ccc(CN2CCN(CCc3ccccc3)C(CCO)C2)cc1 (configuration not stated) |  | inactive: -20.3% |
| O=C(NN=Cc1ccccc1O)C(O)(c1ccccc1)c1ccccc1 | active: 8.2 µM |  |
| O=C(NC1CCN(S(=O)(=O)c2ccc(Cl)c(F)c2)CC1)c1cccnc1 |  | inactive: -26.1% |
| CN(CC(=O)Nc1cccc(F)c1)C(=O)c1ccc(OCc2ccccc2)cc1 | inconclusive [inhibitor, single point] |  |
| CCOc1cc(/C=C2\N=C(C)OC2=O)cc(Br)c1OCCc1ccccc1 |  | inactive: -5.75% |
| CCN(CC(=O)Nc1cccc(S(=O)(=O)N(C)c2ccccc2)c1)Cc1cccs1 | inconclusive [inhibitor, single point] |  |
| C=CCCCCCCCCc1nc(=S)[nH][nH]1 | inconclusive [inhibitor, single point] |  |
| COc1cc(/C=C2\SC(c3ccccc3)=NC2=O)cc(Cl)c1O | inconclusive [inhibitor, single point] |  |
| Cc1nc2sc(C(c3ccc(Cl)cc3)N3CCN(CCO)CC3)c(O)n2n1 (configuration not stated) |  | inactive: 7.56% |
| COCCNc1ncnc2ccc(-c3ccc(N(C)C)cc3)cc12 | inconclusive [inhibitor, single point] |  |
| COc1ccc(NC(=O)c2sc3ncnc(N4CCN(c5ccccn5)CC4)c3c2C)cc1Cl | active: 5.8 µM |  |
| COc1ccc(Cl)cc1NC(=O)C/C(C)=N/NC(=O)COc1ccc(C)cc1 |  | inactive: -12.5% |
| COc1ccc(Cl)cc1NS(=O)(=O)c1c(C)[nH]c(C)c1C(=O)N1CCCCC1 | inconclusive [inhibitor, single point] |  |
| Cc1csc(NC(=O)C2CCCC2)n1 |  | inconclusive: -31.5% [inhibitor] |

| Compound | Potency | activity change, negative = growth inhibition |
| --- | --- | --- |
| OC(COc1ccc2cc(Br)ccc2c1)CN1CCOCC1 (configuration not stated) | inconclusive [inhibitor, single point] |  |
| O=C(O)c1ccc(N/N=C/c2ccnc3ccccc23)cc1 |  | inactive: -29% |
| COC(=O)c1cc(NS(=O)(=O)c2ccc3c(c2)CCC(=O)N3)cc(C(=O)OC)c1 |  | inactive: -16% |
| O=C(COC(=O)c1cc(Cl)cc(Cl)c1)NCc1ccco1 |  | inactive: 2.12% |
| CCCC(=O)N1CCCC1(C)C(=O)Nc1ccc(C)c(C)c1 (configuration not stated) |  | inactive: -16.3% |
| CC1Cc2cc(S(=O)(=O)CCC(=O)NCc3ccc(Cl)cc3)ccc2N1C(=O)C1CC1 (configuration not stated) | active: 4.61 µM |  |
| O=c1[nH]c2cc3c(cc2cc1CN(Cc1cccnc1)C(=S)NCc1ccco1)OCCO3 | inconclusive [inhibitor, single point] |  |
| COc1ccccc1-c1nc(C(N)=O)c2[nH]c(=O)n(-c3cccc(C)c3)c2n1 | inconclusive [inhibitor, single point] |  |
| CC1(C)NC(=O)N(CC(=O)OCC(=O)Nc2cccc(S(N)(=O)=O)c2)C1=O |  | inactive: 1.14% |
| N#CC[C@H](Cc1ccccc1)N1CC[C@@H](NC(=O)OCc2ccccc2)CCC1=O | inconclusive [inhibitor, single point] |  |
| O=C(CCCOc1ccccc1)N1CCN(c2ccccc2)CC1 | inconclusive [inhibitor, partial curve, poor fit] |  |
| COc1ccc(OC)c(CCNC(=O)CCc2cn(Cc3cc(C)ccc3C)c3ccccc23)c1 | inconclusive [inhibitor, single point] |  |
| Cc1ccc(S(=O)(=O)CCCS(=O)(=O)c2ccc(C)cc2)cc1 |  | inactive: -14.7% |
| CC(NS(=O)(=O)CCNC(=O)c1ccccc1)c1ccccc1 (configuration not stated) |  | inactive: 4.06% |
| c1ccc(OCc2nn3c(Cn4cnc5ccccc54)nnc3s2)cc1 | inconclusive [inhibitor, single point] |  |
| CC(C)C(NS(=O)(=O)c1ccccc1)C(=O)N1CCCCCC1 (configuration not stated) |  | inactive: 0.63% |
| COc1ccc(N(CC(=O)N/N=C/c2ccc(-c3ccc([N+](=O)[O-])cc3)o2)S(=O)(=O)c2ccc(C)cc2)cc1 | inconclusive [inhibitor, single point] |  |
| Cc1cc(C(=O)CN2C(=O)C(=O)N(CC(C)C)C2=O)c(C)n1-c1ccccc1F |  | inactive: 1.92% |
| NC1(C#Cc2ccc3c(=O)c4ccccc4sc3c2)CCCCC1 | inconclusive [inhibitor, single point] |  |
| O=C(COc1ccc(Cl)cc1)NCCC1=CCCCC1 |  | inactive: -14.8% |
| CC(C)CC(c1nnnn1CC1CCCO1)N1CCN(c2cccc(Cl)c2)CC1 (configuration not stated) | active: 16.4 µM |  |
| O=C(CN(CCO)c1ccccc1)Nc1ccc(Cl)c(S(=O)(=O)N2CCOCC2)c1 | inconclusive [inhibitor, partial curve] |  |
| Cc1ccc(S(=O)(=O)N(C)CC(=O)NCC(c2ccc(F)cc2)N2CCOCC2)cc1 (configuration not stated) | inconclusive [inhibitor, partial curve] |  |
